# Test results from the supplement of paper PMC12217912.
# The other results are listed elsewhere or left out. Sequences were assembled here from the parent chain. Values near 0.05 are background.
# B1: TEV protease; numbered along this chain (parent)
# chain: MGESLFKGPRDYNPISSSICHLTNESDGHTTSLYGIGFGPFIITNKHLFRRNNGTLVVQSLHGVFKVKDTTTLQQHLVDGRDMIIIRMPKDFPPFPQKLKFREPQREERICLVTTNFQTKSMSSMVSDTSCTFPSGDGIFWKHWIQTKDGQCGSPLVSTRDGFIVGIHSASNFTNTNNYFTSVPKNFMELLTNQEAQQWVSGWRLNADSVLWGGHKVFMVKPEEPFQPVKEATQL
# Variants of: B1
# Assay: raw area under fraction-flipped curve 0-4 h after induction (AUC4h, not background-subtracted), DNA-recorder readout of cleavage of the substrate (dimensionless); higher = more cleavage of the substrate by the protease variant
# Conditions: temperature: 34 °C; time window: 0-4 h after rhamnose induction
# Protocol: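 In vivo DNA recorder in E. coli TOP10(DE3) ΔrhaA at 34 °C. Each TEVp single-site mutant (parent TEVp 0) is paired with a single-site variant of the 7-mer TEVs (canonical ENLYFQ|S). The substrate sits between flexible linkers in a Bxb1-sfGFP-TEVs-SsrA fusion, so cleavage stabilises Bxb1 and speeds flipping of a recombination array, read by NGS. The value is the raw area under the fraction-flipped curve over 0-4 h after rhamnose induction (AUC4h), with ≥20 reads per time point. It is not background-subtracted; inactive controls average about 0.047.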
# 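Note: Bxb1 expression induced with 0.2% (w/v) L-rhamnose at OD600 near 0.5, cultures sampled hourly, flipped fraction per protease–substrate barcode pair counted by paired-end Illumina sequencing.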
Variant,area with substrate CNLYFQS,area with substrate DNLYFQS,area with substrate HNLYFQS,area with substrate KNLYFQS,area with substrate LNLYFQS,area with substrate NNLYFQS,area with substrate PNLYFQS,area with substrate SNLYFQS,area with substrate TNLYFQS,area with substrate WNLYFQS,area with substrate YNLYFQS,area with substrate FNLYFQS,area with substrate GNLYFQS,area with substrate INLYFQS,area with substrate VNLYFQS,area with substrate RNLYFQS,area with substrate MNLYFQS,area with substrate QNLYFQS
V78W,0.0751,0.0727,0.0476,0.0588,0.0536,0.0552,0.0582,0.0559,0.0492,0.0565,0.0478,–,–,–,–,–,–,–
V78P,0.0552,0.0649,0.0566,–,0.079,0.0382,0.0645,0.0571,0.0628,0.0613,0.0589,0.0535,0.047,0.0518,0.0644,–,–,–
V78Y,0.0618,0.0606,0.053,0.0486,0.0512,0.0487,–,0.0774,0.0838,0.0704,0.0463,0.0453,0.0651,0.0613,0.0501,–,–,–
T55S,0.0741,0.0877,0.0697,0.0638,0.0596,0.0766,–,0.074,0.057,–,0.0655,0.0574,–,–,0.069,–,–,–
I84G,0.0633,0.0513,0.043,0.046,0.066,0.0587,–,0.0625,–,–,0.0441,–,–,0.0383,0.0415,0.0656,–,–
I84E,0.0534,0.0447,0.0509,0.0576,0.0358,0.0473,0.0644,0.0556,0.0545,0.0483,0.0539,0.0491,–,0.0464,0.0514,–,0.0519,0.0506
F49A,0.0492,0.0505,0.0506,–,0.0544,0.0513,0.0514,0.0526,0.0586,0.0569,0.0532,0.0491,–,–,0.0582,–,0.0552,–
F49I,0.096,0.0727,0.0604,0.0735,0.0531,0.0577,0.0598,–,0.063,0.0576,–,0.0616,0.0585,–,0.0626,0.0543,0.0507,–
F49M,0.0676,0.0526,0.0547,0.0637,0.0603,0.0695,0.0588,0.0533,0.0565,0.0549,0.0415,0.0536,0.0397,0.0562,0.0899,0.0529,–,–
I85R,0.0693,0.0582,0.057,0.0554,–,0.0601,0.0575,–,0.0698,–,–,–,0.0529,–,0.0544,–,0.0586,–
K46T,0.0503,0.0664,0.0555,0.0681,0.0534,0.0525,0.0654,0.0604,–,0.0567,0.0519,0.0602,0.0589,0.0513,0.0526,–,0.0692,–
K46M,0.0557,0.0524,0.0703,0.0589,0.054,0.0628,0.0523,–,–,0.0487,0.0719,0.0493,0.0544,0.0649,0.0315,–,0.0619,–
Q59I,0.08,0.0768,–,–,0.0866,0.0447,0.0385,–,0.0901,0.0623,–,–,0.0868,–,–,–,0.0759,–
H76R,0.0719,0.0555,0.0588,–,0.0619,–,0.0759,0.0783,0.0737,0.0634,0.0482,0.0696,0.0574,0.0443,–,–,–,–
H62A,0.081,0.0642,–,0.0394,0.0802,0.0488,0.0667,0.0629,0.0797,0.0637,–,0.0527,0.0708,–,–,0.0445,–,–
D69E,0.0715,0.0592,0.0916,0.0575,0.0598,–,0.0436,–,–,–,0.0585,–,–,0.064,–,–,–,–
T71E,0.0632,0.0745,0.063,0.0332,0.0761,0.0635,0.0694,–,0.0709,0.0572,–,0.0671,0.078,0.0335,–,–,0.065,–
I86Q,0.0345,0.039,0.0395,0.0562,0.0371,–,0.0453,0.0273,0.0313,0.0339,0.0321,0.04,–,–,–,–,0.0398,–
I86V,0.0086,0.069,0.0666,–,0.0535,0.0562,0.0645,–,0.0549,0.0484,–,–,–,–,–,0.0639,0.067,–
R50K,0.0548,0.0721,0.0691,–,0.0579,0.0562,0.0958,–,0.0656,0.0452,0.0557,–,0.0532,0.0696,0.074,0.0683,–,–
R50P,0.0791,0.0711,0.0664,0.0598,0.0654,0.0593,0.0654,–,0.0657,0.056,0.0721,0.0556,0.053,0.0563,0.0575,–,0.0725,0.0582
R50H,0.0716,0.0814,0.0797,–,0.0786,0.0567,0.0898,–,0.104,–,0.066,–,0.0795,0.0708,–,–,–,0.0835
L61H,0.0659,0.0864,0.0646,–,0.0543,0.0613,0.0735,0.0655,0.0648,0.0715,0.0753,0.0577,0.0683,–,–,–,–,0.0731
L61W,0.0601,0.0841,0.0559,0.0649,–,0.0504,0.0439,–,0.0822,0.061,0.0627,0.057,0.0688,0.0544,–,–,0.0606,–
H47C,0.0574,0.0467,–,0.0693,0.062,–,0.0408,0.0484,0.0502,–,–,0.05,0.0583,0.0584,0.0431,–,–,–
H47E,0.0574,0.055,0.0456,0.0569,–,0.0569,0.0658,0.062,0.0564,0.0616,0.0586,0.0682,0.0579,0.0604,–,–,0.0615,–
S60K,0.0707,0.0631,0.0549,–,0.0766,–,0.056,0.0707,0.0673,0.0412,0.0482,0.0538,0.057,0.0671,0.0518,–,0.0638,–
